From the supplement of paper PMC12632987
Whole data set: some 2,300 sequences, median “median log2 fold change of GCK-ALFA target abundance (FLAG IP / Myc IP barcode read proportion)” near 0.095, cut for the lowest 2% near -0.47. The list shows a part of the results.

B1: LC3A_147_473 (protein)
chain: VKTIVDIDILTKDAEEEVIERIKEIVEELKKEGYKVELKIETEKLEDGTTFIDVTITIYAETKEEAEEAANKVIDKLEEMEEELKDKILGSIISVDIEEL
B2: LC3A_28_1004 (protein)
chain: SELDKNLKEAIEKAKKAAEEKKPVVITIKVPGTANEEDIERVIKAIEEIAEILKDIPGSAIVVDIDGTLKQEFRDRLIDKAEEVEKKYPNITVIIALDED
B3: LC3A_28_1185 (protein)
chain: SELEENLEKALEEAREAAERGEPAVITIKVPGDANEEDIEKVIKTLEEIAEILKDIPGSAIIIDLEKGVKQEHIDKLAEKGEEIEEKYPNVTVILALEEE
B4: LC3A_28_849 (protein)
chain: SAIDAELAAQKAKAEAAKAAGEEVLLEVTVTSETTLEDAEKISEGLEEIAEAAKDLPSLDIVVNFTEPVDQEVLDKIAETGDRLEKRYPHVNVVLALPED
B5: LC3A_28_783 (protein)
chain: SELEKNIEAAIKEAKAAKAAGKSQVITIKVPGTATEEDIEKVIAGLKEIAEILKGVKDQAIIIDVDADVAPEHIQKLADEADRIEKEYPNVTVIIALEEK
B6: LC3A_28_971 (protein)
chain: SELDENLEKALAEARAAAEAGEPPVIVLKVPGSDDPEDTEKVIKTLEEIAEILSGVEGAAIIIDIDGGVSPEHQNKIIDKAEEIEEKYPNVTVIIALEER
B7: LC3A_28_885 (protein)
chain: GSALKSAEEALEKVKKALEAGDKEPLVLEVDAPSEPEDVEKFIELLEEIAKEASKGIKVHIVVDISSDVSQENRDKIIDAGDEIEKKYPNVTVIFALPED
B8: LC3A_45_1967 (protein)
chain: MYKATLYLLVPRELAEKALAVMEEEVERLRREEGLEAEVLRERNEENLKRDQDTGEVLLEVEIIAPTKQEALDAADRIHDAVEEATGKPVAAIIEVEEVP
B9: LC3A_3_1495 (protein)
chain: MEELLKKVKEVLEKLGASPEQIKRVLEDAKKLLEKGYEKTVEKLIELLEKYKDLSPLDLTAAFLTTADEALEKNLSEEEAVEKAEEIFEDVAEIEALDEE
B10: LC3A_3_1755 (protein)
chain: MEEKLKEAREELKELGFSDEVIERALKVVEALLKKGFEEAVEVLIEELKELKDLPDEIILDMLDDILEKVETEDLNEEEVIEVIKEEARVARSESEIIEL
B11: LC3A_28_1063 (protein)
chain: SKVEAEIKKALAEAKEAVAAGEEALVTITIDDSDSDEDVEKKLKTMEEIAELTKTLPRTTILVDIDSSRKEEISKKVSEVGDKLEKKYPNVTVIIALSEE
B12: LC3A_3_1730 (protein)
chain: MEELLEKYRKRIESLGLSKEVQEKAMETIKLLLEKGLEEEVDLLLETLEKIKDADQEVILEGLEEIKELVETSKLPKEELAKKVKEEIKTLENDGEIIEL
B13: LC3A_28_1033 (protein)
chain: SALEAAADAALAEARAQFEAGEDAVVTLDVGDVDTETARAVVTAFLERLRALSAEHGGRKVSVVINYDGDQEGLDAIIDAAEAAEAADPNLTVIIAYADK
B14: LC3A_3_1789 (protein)
chain: GEERLERLLERLRAAGKSEETIAAVRRTGERLLELGYEEALETFIEEMERLIDAPDELLLDLAERVLEALETNDLSEEELRAYIEEEARLVRLESEIIEL
B15: LC3A_28_1295 (protein)
chain: SEIEKNLKEALAEAKKAKAEGKQVVITVKVPGDATQEEIELVIKGLEEIAKVLEDVPNQTIIIDVEAGVKQEHIDLLADRAEEIEKKYPNVTVIIALDED
B16: LC3A_147_519 (protein)
chain: MKYKVTVTIYTDGPPEEAREIAEEVVEELKEKGLVEKAEIEVKEIDPDGTLTEVTITLYTKTKEKAEEAANEAVNRFEELAEKRGIKVYAISVEIEEIEE
B17: LC3A_45_1956 (protein)
chain: MYEATVYVLVPAEDFDRVAAVLREEAERLRRERGVEVEIDPAALAAAREEAEREGEALLEVRVIAETRQTALDAADEIADAVEAASPPSVAVAISVEEVP
B18: LC3A_28_1127 (protein)
chain: SEAKKAAEEALKKAKEEAEKGEYVVAEFTITDKMTEEEVDYVLEKIEETAEYLESKGQNSILVNIDIRNRPELRDYVIDKVDEIHKKYPSVNIVIALVEQ
B19: LC3A_28_748 (protein)
chain: SEIEKQLEEALKKAKEAAEKNEPVVITIKVSGSATEEDIEKVIEALYEIAEILKNVKDQAIIIDVDGSLKQEHLDKLVDAAEEIEKKYPNVTVIIALDEE

The binders below were run against MAP1LC3A, Q9H492 (assay: median log2 fold change of GCK-ALFA target abundance (FLAG IP / Myc IP barcode read proportion) (log2 ratio); each designed protein is fused to an ALFA-tag nanobody in HEK293 cells to bring the named protein to FLAG-tagged glucokinase (GCK); Myc marks an untargeted standard; higher = target protein stabilised (more abundant)). Details: target protein: 3xFLAG-MCP-GCK-ALFA reporter; HEK293 landing pad (RPLP).
Procedure, shortened: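 Sequencing of reverse-transcribed, amplified circular RNA barcodes from anti-FLAG and anti-Myc immunoprecipitates provided the readout for an ALFA-nanobody-fused binder library recombined into HEK293 landing-pad cells. Those cells were induced with 2 μg mL^−1 doxycycline, transfected with a plasmid expressing a FLAG-tagged target and a Myc-tagged standard, and lysed after 48 h. Target abundance is the per-binder median log2 ratio of FLAG to Myc barcode read proportions. Only barcodes at a proportion of ≥10^−7 in both replicates and binders with ≥3 barcodes per replicate were kept, with a 10^−6 pseudocount added before the two replicates were pooled.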

Binder	median log2 fold change
B1	-0.0233
B2	0.152
B3	0.0727
B4	-0.0347
B5	0.271
B6	-0.0123
B7	0.179
B8	-0.128
B9	0.247
B10	0.0697
B11	0.0338
B12	0.208
B13	-0.314
B14	0.0655
B15	0.184
B16	-0.278
B17	-0.323
B18	-0.102
B19	-0.136
